Structures are written as SMILES. Structures can show the parent of a compound that is named as a salt. The list shows a part of the results. The data scatter; read single values as rough.

We go through 28 compounds from the supplement of paper PMC11880418.

Common to all, as to assay: ALDHbr (CSC) cell proportion score relative to DMSO vehicle (ratio to DMSO); breast (SUM159) / gastric (MKN45) / pancreatic (PANC1) / colon cancer lines; ALDHbr cells have high ALDH activity and are rich in cancer stem cells (CSC); higher = more CSC (ALDHbr) cells remaining
What all share (settings): 10 µM; 72 h

Test [1] relates to MKN45.
Test [2] concerns PANC1.
Test [3] has as its system SUM159.
In test [4] the test system is T84.
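Further: High-content imaging of ALDEFLUOR-stained cells with Hoechst-labelled nuclei in 384-well plates, triplicate wells, scored as Z-score against 0.1% DMSO vehicle, negative meaning fewer ALDHbr cells.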

Consider `OC(CCN1CCCCC1)(c1ccccc1)c1ccccc1` [Pridinol methanesulfonate salt], for which the ALDHbr in test [1] is 0.986; in test [2] it was 0.912; in test [3], 1.14; in test [4], 0.938.

As to `COc1cc2ncnc(Nc3ccc(F)c(Cl)c3)c2cc1OCCCN1CCOCC1` [Gefitinib], the ALDHbr in test [1] came to 0.653; in test [2], 1.38; in test [3], 0.608; in test [4] it was 0.281.

As to `CC(C)NCC(O)c1ccc(O)c(O)c1` (single isomer, unassigned; (-)) [(-)-Isoproterenol hydrochloride], the ALDHbr in test [1] turned out to be 0.99; in test [2], 0.852; in test [3], 2.18; in test [4] it was 0.946.

In the case of `N=C(N)NS(=O)(=O)c1ccc(N)cc1` [Sulfaguanidine], the ALDHbr in test [1] was 0.978; in test [2], 1.01; in test [3] it was 1.03; in test [4] it was 0.869.

Consider `O=C1OCCN1/N=C/c1ccc([N+](=O)[O-])o1` [Furazolidone], for which the ALDHbr came to 0.399 in test [1], 0.817 in test [2], 0.328 in test [3] and 0.301 in test [4].

As for `CC=C(C)C(=O)OC1C(OC(C)=O)C2(CO)C(O)CC3(C)C(=CCC4C5(C)CCC(OC6OC(C(=O)O)C(OC7OC(CO)C(O)C(O)C7O)C(O)C6OC6OC(CO)C(O)C(O)C6O)C(C)(CO)C5CCC43C)C2CC1(C)C` (stereo not drawn) [Beta-Escin], the ALDHbr is 0.946 in test [1], 0.787 in test [2], 0.452 in test [3] and 0.761 in test [4].

In the case of `CCOc1ccc2ccccc2c1C(=O)N[C@@H]1C(=O)N2[C@@H]1SC(C)(C)[C@@H]2C(=O)O` [Nafcillin sodium salt monohydrate], the ALDHbr came out at 0.797 in test [1], 0.969 in test [2], 1.19 in test [3] and 0.97 in test [4].

With `CCCCOc1ccc(OCCCN2CCOCC2)cc1` [Pramoxine hydrochloride], the ALDHbr was 0.694 in test [1], 0.96 in test [2], 1.1 in test [3] and 1.02 in test [4].

As for `CC(C)C(=O)c1c(C(C)C)nn2ccccc12` [Ibudilast], the ALDHbr came to 0.902 in test [1], 0.913 in test [2], 1.46 in test [3] and 0.972 in test [4].

Regarding `CO[C@@]1(NC(=O)C2SC(=C(C(N)=O)C(=O)O)S2)C(=O)N2C(C(=O)O)=C(CSc3nnnn3C)CS[C@@H]21` (some centres not stated) [Cefotetan], the ALDHbr in test [1] is 0.998; in test [2], 1.05; in test [3], 0.804; in test [4], 1.02.

As to `NS(=O)(=O)c1cc(C2(O)NC(=O)c3ccccc32)ccc1Cl` (configuration not stated) [Chlorthalidone], the ALDHbr was 0.987 in test [1], 0.947 in test [2], 1.09 in test [3] and 0.981 in test [4].

As for `CCOC(=O)[C@H](CCc1ccccc1)N[C@@H](C)C(=O)N1[C@H](C(=O)O)C[C@@H]2CCC[C@@H]21` [Ramipril], the ALDHbr in test [1] was 0.955; in test [2] it was 0.922; in test [3] it was 0.919; in test [4], 0.831.

Turning to `Cc1ccc(O)c([C@H](CCN(C(C)C)C(C)C)c2ccccc2)c1` [Tolterodine tartrate], the ALDHbr came to 0.864 in test [1], 1.03 in test [2], 0.7 in test [3] and 1.14 in test [4].

Turning to `Nc1nc(=O)[nH]cc1F` [Flucytosine], the ALDHbr stood at 1.06 in test [1], 0.811 in test [2], 1.27 in test [3] and 1.02 in test [4].

As to `CCN(CC)CCOC(=O)C(c1ccccc1)c1ccccc1` [Adiphenine hydrochloride], the ALDHbr is 1.25 in test [1], 0.964 in test [2], 1.04 in test [3] and 1.19 in test [4].

Turning to `CC(C)Cn1cnc2c(N)nc3ccccc3c21` [Imiquimod], the ALDHbr turned out to be 1.23 in test [1], 0.981 in test [2], 1.22 in test [3] and 0.906 in test [4].

For the compound `O=C1c2ccccc2S(=O)(=O)N1CCCCN1CCN(c2ncccn2)CC1` [Ipsapirone], the ALDHbr in test [1] was 0.966; in test [2], 0.931; in test [3], 0.886; in test [4], 0.81.

For `CN1[C@@H]2CC[C@H]1C[C@@H](OC(c1ccccc1)c1ccccc1)C2` [Benztropine mesylate], the ALDHbr in test [1] is 0.768; in test [2], 1.06; in test [3] it was 1.03; in test [4], 0.907.

Consider `O=C(c1ccc(F)cc1)C1CCN(CCn2c(=O)[nH]c3ccccc3c2=O)CC1` [Ketanserin tartrate hydrate], for which the ALDHbr was 1.02 in test [1], 0.653 in test [2], 1.16 in test [3] and 0.999 in test [4].

`CN1[C@@H]2CC[C@H]1C[C@@H](OC(=O)C(O)c1ccccc1)C2` (mixture of isomers) [Homatropine hydrobromide (R,S)]: the ALDHbr came to 0.945 in test [1], 0.91 in test [2], 0.941 in test [3] and 0.905 in test [4].

With `COc1ccc([C@@H]2CC(=O)c3c(O)cc(O[C@@H]4O[C@H](CO[C@@H]5O[C@@H](C)[C@H](O)[C@@H](O)[C@H]5O)[C@@H](O)[C@H](O)[C@H]4O)cc3O2)cc1O` [Hesperidin], the ALDHbr was 1.09 in test [1], 0.861 in test [2], 1.03 in test [3] and 1 in test [4].

Take `Nc1nc(F)nc2c1ncn2[C@@H]1O[C@H](CO)[C@@H](O)[C@@H]1O` [Fludarabine]: the ALDHbr in test [1] is 0.65; in test [2], 0.0267; in test [3] it was 0.09; in test [4] it was 0.948.

On to `O=C(O)CCNC(=O)c1ccc(/N=N/c2ccc(O)c(C(=O)O)c2)cc1` [Balsalazide Sodium], for which the ALDHbr is 0.966 in test [1], 0.881 in test [2], 1.03 in test [3] and 0.981 in test [4].

On to `C=CC1=C(C(=O)O)N2C(=O)[C@@H](NC(=O)/C(=N\OCC(=O)O)c3csc(N)n3)[C@H]2SC1` [Cefixime], for which the ALDHbr was 1.23 in test [1], 0.792 in test [2], 0.99 in test [3] and 1.08 in test [4].

Turning to `CO/N=C(\C(=O)N[C@@H]1C(=O)N2C(C(=O)OC(C)OC(C)=O)=C(COC(N)=O)CS[C@H]12)c1ccco1` (some centres not stated) [Cefuroxime axetil], the ALDHbr in test [1] turned out to be 1.12; in test [2], 0.963; in test [3], 1.06; in test [4], 0.962.

Regarding `CCC(NC(C)C)C(O)c1ccc(O)c(O)c1` (configuration not stated) [Isoetharine mesylate salt], the ALDHbr is 0.523 in test [1], 0.868 in test [2], 2.21 in test [3] and 0.84 in test [4].

`COc1ccccc1OCC(O)CN1CCN(CC(=O)Nc2c(C)cccc2C)CC1` (configuration not stated) [Ranolazine]: the ALDHbr in test [1] amounted to 1; in test [2], 0.927; in test [3], 0.887; in test [4] it was 0.891.

Regarding `CCCCC1=NC2(CCCC2)C(=O)N1Cc1ccc(-c2ccccc2-c2nnn[nH]2)cc1` [Irbesartan], the ALDHbr in test [1] came out at 1.12; in test [2], 0.965; in test [3], 1.05; in test [4], 0.959.
